# Measurements reported in article PMC12700824.
# Chains of the proteins cited; added tags and fusions are not shown. Lines headed by an entry give the natural chain unless they say otherwise; changes in a name come on top. A line that says so, or that is headed by a name, gives the form on record, which may keep a tag or linker.
# UniProt Q9BPY3: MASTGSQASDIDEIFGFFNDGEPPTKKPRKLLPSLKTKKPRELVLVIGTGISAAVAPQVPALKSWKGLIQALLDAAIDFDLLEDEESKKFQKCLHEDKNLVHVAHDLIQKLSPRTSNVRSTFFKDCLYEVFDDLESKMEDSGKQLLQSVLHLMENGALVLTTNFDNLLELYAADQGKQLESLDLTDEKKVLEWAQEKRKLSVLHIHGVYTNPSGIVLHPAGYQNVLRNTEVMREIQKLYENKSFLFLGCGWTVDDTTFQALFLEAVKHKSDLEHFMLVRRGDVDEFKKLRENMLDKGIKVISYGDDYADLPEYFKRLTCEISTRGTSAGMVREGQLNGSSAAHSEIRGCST
# FAM118B24–334-F122R (Q9BPY3, form named): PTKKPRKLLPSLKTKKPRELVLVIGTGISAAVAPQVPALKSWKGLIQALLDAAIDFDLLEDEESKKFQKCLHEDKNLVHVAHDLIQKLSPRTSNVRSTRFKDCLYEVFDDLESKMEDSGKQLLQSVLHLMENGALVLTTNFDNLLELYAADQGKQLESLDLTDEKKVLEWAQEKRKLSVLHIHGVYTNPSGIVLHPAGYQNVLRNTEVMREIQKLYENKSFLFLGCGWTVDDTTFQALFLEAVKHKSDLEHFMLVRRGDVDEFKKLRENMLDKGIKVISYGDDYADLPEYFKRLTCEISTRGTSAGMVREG
# FAM118B24–334-L32R (Q9BPY3, form named): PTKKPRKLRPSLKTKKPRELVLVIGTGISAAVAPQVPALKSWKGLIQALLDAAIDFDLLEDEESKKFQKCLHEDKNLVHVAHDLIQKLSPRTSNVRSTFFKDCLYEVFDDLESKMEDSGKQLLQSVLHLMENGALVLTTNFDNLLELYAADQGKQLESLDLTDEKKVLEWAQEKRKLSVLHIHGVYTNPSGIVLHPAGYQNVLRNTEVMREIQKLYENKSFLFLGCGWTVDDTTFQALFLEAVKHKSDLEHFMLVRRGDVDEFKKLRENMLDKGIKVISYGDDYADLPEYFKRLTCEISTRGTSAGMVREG
# No constants are given. Whether binding was seen depends on the method and setting. Some entries that bind do so weakly or less than the wild type.
# How the values were obtained:
# [1] = molecular target: FAM118B24–334-F122R (human) (UniProt Q9BPY3); assay: SEC; analytical SEC, Superdex Increase 10/300 GL, 50 mM Tris pH 8, 200 mM NaCl, 0.5 mM TCEP; injection concentrations up to 20 µM (mutant mixture: 10 µM each); sizes are coarse estimates from globular standards; both purified
# [2] = molecular target: FAM118B24–334-L32R (human) (UniProt Q9BPY3); assay: as above
# [3] = molecular target: FAM118B-F122R, full length, tagged with mEGFP or with mCherry (human) (UniProt Q9BPY3); assay: fluorescence cross-correlation spectroscopy (FCCS); living U2OS cells coexpressing an mEGFP-tagged and an mCherry-tagged protein, 37 °C; diffuse, lower-expressing cells
# [4] = molecular target: FAM118B-L32R, full length, tagged with mEGFP or with mCherry (human) (UniProt Q9BPY3); assay: as above
substance,measurement,setting,value
FAM118B24–334-F122R (from UniProt Q9BPY3 24-334) (domain or fragment),binding,[1],binds weakly
FAM118B24–334-L32R (from UniProt Q9BPY3 24-334) (domain or fragment),binding,[2],no binding (tested: 20 µM)
"FAM118B-F122R, full length, tagged with mEGFP or with mCherry (from UniProt Q9BPY3 1-351) (enzyme)",binding,[3],no binding
same,binding,[4],binds
"FAM118B-L32R, full length, tagged with mEGFP or with mCherry (from UniProt Q9BPY3 1-351) (enzyme)",binding,[3],binds
same,binding,[4],no binding
